According to PubChem BioAssay (NCI):
Several values for one entry are separate records, joined by “and”; a condition that tells them apart may be missing. Identical values can stand only once.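 Exposure lasted 48 hours, with cells grown in 96-well plates and compounds tested at five concentrations. GI50 is the concentration that inhibits growth by half. TGI: total growth inhibition.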

tested on: NCI-H322M lung; experiment: inhibition of tumour cell growth, NCI panel, 48 h

| Compound | GI50 | TGI |
| --- | --- | --- |
| COC(=O)CNC(=O)COc1c(OC)c(OC)cc2oc(-c3cccc(C(=O)Nc4ccc(Cl)cc4)c3)cc(=O)c12 | 12.5 µM | 39.6 µM |
| CCNCCCn1c2c(c3cc(OC)c(OC)cc3c1=O)C(=O)c1cc3c(nc1-2)OCO3 | 4.02 µM | 18.1 µM |
| CC1=C(c2cc(-c3ccc(Cl)cc3)c(C#N)c(N)n2)C(c2ccccc2)NC(=S)N1 (stereo unspecified) | 20 µM | 50.9 µM |
| COc1cc2c3c(n(CCCNC(C)C)c(=O)c2cc1OC)-c1nc2c(cc1C3=O)OCO2 | 9.1 µM | 21.4 µM |
| CSc1ccc(C(=O)Nc2ccc3nn(/C(C#N)=C/c4ccccn4)nc3c2)cc1 | 5.34 µM | 11.3 µM |
| CN1CCN(C(=O)Oc2cc3c(c4ccccc24)[C@H](CCl)CN3C(=O)c2cc3cc(OCCCN4CCC4)ccc3[nH]2)[C@H]2CSSC[C@H]21 | 0.018 µM and 0.0135 µM | 0.0575 µM and 0.0782 µM |
| COc1c(B(O)O)cc(F)cc1-c1nc2c(F)cc3[nH]ncc3c2c2c1CCCC2 | 10.3 µM | 87.8 µM |
| O=C(c1ccc(Cl)cc1)C1[C@H](c2ccc(Br)cc2)[C@@H](c2ccccc2)NC12C(=O)Nc1ccc(Br)cc12 (stereo partly specified) | 3.89 µM | 10.3 µM |
